Structures can show the parent of a compound that is named as a salt. This is one part of the list. Cut-off read from the data, not from the text of the source: active = 0.5 or less and inactive = the rest. Repeats are few or missing, and single values can be far off.
What follows are compounds tested on HeLa VPS33A R498W KI + HA-SDC1-FLAG (assay: relative GAG core protein HA-SDC1 amount per cell number vs DMSO (fraction of DMSO); higher = more SDC1 (GAG core protein)). Conditions: 50 µM; 24 h.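 Note: HA-SDC1 level read out by In-Cell Western staining with an anti-HA antibody against the N-terminal tag, screening FDA-approved library drugs.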
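Throughout, for relative mutant VPS33A R498W amount (NanoLuc luminescence) vs DMSO: screen of an FDA-approved drug library, NanoLuc luminescence read after lysing the treated cells, taken as a measure of mutant VPS33A protein stability.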

Row | Compound | relative GAG core protein HA-SDC1 amount per cell number
1 | C1COC(NC(C2CC2)C2CC2)=N1 [Rilmenidine Phosphate] | inactive: 0.975
2 | CCCc1nc2c(C)cc(-c3nc4ccccc4n3C)cc2n1Cc1ccc(-c2ccccc2C(=O)O)cc1 [Telmisattan] | active: 0.491
3 | NC(=O)NCCC[C@H](N)C(=O)O | inactive: 1.11
4 | C[C@H]1[C@H](NC(=O)/C(=N\OC(C)(C)C(=O)O)c2csc(N)n2)C(=O)N1S(=O)(=O)O [Aztreonam] | inactive: 0.982
5 | O=C1OC(CN2CCOCC2)CN1/N=C/c1ccc([N+](=O)[O-])o1 (configuration not stated) [Furaltadone HCl] | inactive: 0.748
6 | Cc1cnc(C(=O)NCCc2ccc(S(=O)(=O)NC(=O)NC3CCCCC3)cc2)cn1 [Glipizide] | inactive: 1.17
7 | CC[C@H]1OC(=O)C[C@@H](O)[C@H](C)[C@@H](O[C@@H]2O[C@H](C)[C@@H](O)[C@H](N(C)C)[C@H]2O)[C@@H](CCN2C[C@H](C)C[C@H](C)C2)C[C@@H](C)C(=O)/C=C/C(C)=C/[C@@H]1CO[C@@H]1O[C@H](C)[C@@H](O)[C@@H](OC)[C@H]1OC [Tilmicosin] | inactive: 0.9
8 | O=C(Nc1cccc2c(=O)cc(-c3nnn[nH]3)oc12)c1ccc(OCCCCc2ccccc2)cc1 [Pranlukast] | inactive: 0.854
9 | O=C1CC2(CCCC2)CC(=O)N1CCCCN1CCN(c2ncccn2)CC1 [Buspirone HCl] | inactive: 0.999
10 | Nc1nc(F)nc2c1ncn2[C@@H]1O[C@H](CO)[C@@H](O)[C@@H]1O [Fludarabine] | inactive: 1.04
11 | CCCCC[C@H](O)/C=C/[C@H]1[C@H](O)CC(=O)[C@@H]1CCCCCCC(=O)O [Alprostadil] | inactive: 0.877
12 | Nc1nc2c(ncn2COC(CO)CO)c(=O)[nH]1 [Ganciclovir] | inactive: 1.03
13 | Oc1ccccc1O [Pyrocatechol] | inactive: 0.871
14 | Cc1ccc(Nc2nccc(N(C)c3ccc4c(C)n(C)nc4c3)n2)cc1S(N)(=O)=O | inactive: 1.37
15 | CN1CCN(c2c(F)cc3c(=O)c(C(=O)O)cn4c3c2OCN4C)CC1 [Marbofloxacin] | inactive: 1.23
16 | CC(=O)OCC(CCn1cnc2cnc(N)nc21)COC(C)=O [Famciclovir] | inactive: 0.818
17 | C[C@H]1O[C@H](O[C@H]2[C@H](O)[C@@H](O)[C@@H](O[C@@H]([C@H](O)[C@@H](O)C=O)[C@H](O)CO)O[C@@H]2CO)[C@H](O)[C@@H](O)[C@@H]1N[C@H]1C=C(CO)[C@@H](O)[C@H](O)[C@H]1O [Acarbose] | inactive: 1.48
18 | CC(C)(Oc1ccc(Cl)cc1)C(=O)O [Clofibric Acid] | inactive: 1.14
19 | Cc1cccc(Nc2ccncc2S(=O)(=O)NC(=O)NC(C)C)c1 [Torsemide] | inactive: 0.819
20 | CC1(C)O[C@@H]2C[C@H]3[C@@H]4CCC5=CC(=O)CC[C@]5(C)[C@@]4(F)[C@@H](O)C[C@]3(C)[C@]2(C(=O)CCl)O1 [Halcinonide] | inactive: 1.23
21 | CCCCCCCCCCC[C@@H](C[C@@H]1OC(=O)[C@H]1CCCCCC)OC(=O)[C@H](CC(C)C)NC=O [Orlistat] | inactive: 1.17
22 | C=CCNC1=C2C[C@@H](C)C[C@H](OC)[C@H](O)[C@@H](C)/C=C(\C)[C@H](OC(N)=O)[C@@H](OC)/C=C\C=C(/C)C(=O)NC(=CC1=O)C2=O | inactive: 0.521
23 | CS(=O)(=O)c1ccc([C@@H](O)[C@@H](CO)NC(=O)C(Cl)Cl)cc1 [Thiamphenicol] | inactive: 0.664

The compounds below were run on HeLa VPS33A KO + NLuc-VPS33A R498W (assay: relative mutant VPS33A R498W amount (NanoLuc luminescence) vs DMSO (fraction of DMSO); HeLa model of a glycosaminoglycan (GAG) storage disease; KI is knock-in and KO knock-out; SDC1 is syndecan 1; higher = higher mutant VPS33A level). Conditions: 50 µM; 24 h.

Row | Compound | relative mutant VPS33A R498W amount
24 | CC1(C)O[C@@H]2C[C@H]3[C@@H]4CCC5=CC(=O)C=C[C@]5(C)[C@H]4[C@@H](O)C[C@]3(C)[C@]2(C(=O)CO)O1 [Desonide] | 1.05
25 | C=CC1=C(C(=O)O)N2C(=O)[C@@H](NC(=O)/C(=N\O)c3csc(N)n3)[C@H]2SC1 [Cefdinir] | 1.03
26 | CCCCCCCCCCCCCCCC(=O)O [Palmitic acid] | 1.66
27 | CCC[S+]([O-])c1ccc2[nH]c(NC(=O)OC)nc2c1 (configuration not stated) [Albendazole Oxide] | 0.894
28 | O=C(O)[C@@H]1C[C@@H](O)CN1 [L-Hydroxyproline] | 1.02
29 | CCOc1ccccc1OC(c1ccccc1)C1CNCCO1 (configuration not stated) [Reboxetine mesylate] | 0.733
30 | C[C@H](CCC(=O)O)[C@H]1CC[C@H]2[C@@H]3CC[C@@H]4C[C@H](O)CC[C@]4(C)[C@H]3C[C@H](O)[C@]12C [Deoxycholic acid] | 1.09
31 | C[C@H]1C[C@@H]2[C@H]([C@@H](O)C[C@@]3(C)[C@H]2CC[C@]3(O)C(=O)CO)[C@@]2(C)C=CC(=O)C=C12 [Methylprednisolone] | 0.818
32 | Oc1ncnc2[nH]ncc12 [Allopurinol] | 0.943
33 | O=c1[nH]cnc2c1ncn2[C@@H]1O[C@H](CO)[C@@H](O)[C@H]1O [Inosine] | 1.53
34 | COc1cc(-c2oc3cc(O)cc(O)c3c(=O)c2O)ccc1O [Isorhamnetin] | 0.357
35 | COC(c1ccccc1)(c1ccccc1)[C@H](Oc1nc(C)cc(C)n1)C(=O)O [Ambrisentan] | 1.12
36 | C[C@@H]1C[C@H]2[C@@H]3C[C@H](F)C4=CC(=O)C=C[C@]4(C)[C@@]3(F)[C@@H](O)C[C@]2(C)[C@@]1(O)C(=O)CO [Flumethasone] | 1.08
37 | NCCCC[C@@H]1NC(=O)[C@@H](Cc2ccc(O)cc2)NC(=O)[C@H](CC(=O)O)NC(=O)CNC(=O)[C@H](CCCN=C(N)N)NC1=O [Cyclo(RGDyK)] | 1.02
38 | CC(O)(P(=O)(O)O)P(=O)(O)O [Etidronate] | 1.1
39 | CCOC(=O)[C@H](CCc1ccccc1)N[C@@H](C)C(=O)N1C(=O)N(C)C[C@H]1C(=O)O [Imidapril HCl] | 1.09
40 | C1COC(NC(C2CC2)C2CC2)=N1 [Rilmenidine Phosphate] | 1.16
41 | CCCc1nc2c(C)cc(-c3nc4ccccc4n3C)cc2n1Cc1ccc(-c2ccccc2C(=O)O)cc1 [Telmisattan] | 0.472
42 | NC(=O)NCCC[C@H](N)C(=O)O | 1.15
43 | C[C@H]1[C@H](NC(=O)/C(=N\OC(C)(C)C(=O)O)c2csc(N)n2)C(=O)N1S(=O)(=O)O [Aztreonam] | 1.24

Row | Compound | relative mutant VPS33A R498W amount
44 | O=C1OC(CN2CCOCC2)CN1/N=C/c1ccc([N+](=O)[O-])o1 (configuration not stated) [Furaltadone HCl] | 0.53
45 | Cc1cnc(C(=O)NCCc2ccc(S(=O)(=O)NC(=O)NC3CCCCC3)cc2)cn1 [Glipizide] | 0.875
46 | CC[C@H]1OC(=O)C[C@@H](O)[C@H](C)[C@@H](O[C@@H]2O[C@H](C)[C@@H](O)[C@H](N(C)C)[C@H]2O)[C@@H](CCN2C[C@H](C)C[C@H](C)C2)C[C@@H](C)C(=O)/C=C/C(C)=C/[C@@H]1CO[C@@H]1O[C@H](C)[C@@H](O)[C@@H](OC)[C@H]1OC [Tilmicosin] | 0.748
47 | O=C(Nc1cccc2c(=O)cc(-c3nnn[nH]3)oc12)c1ccc(OCCCCc2ccccc2)cc1 [Pranlukast] | 1.26
48 | O=C1CC2(CCCC2)CC(=O)N1CCCCN1CCN(c2ncccn2)CC1 [Buspirone HCl] | 0.986
49 | Nc1nc(F)nc2c1ncn2[C@@H]1O[C@H](CO)[C@@H](O)[C@@H]1O [Fludarabine] | 1.55
50 | CCCCC[C@H](O)/C=C/[C@H]1[C@H](O)CC(=O)[C@@H]1CCCCCCC(=O)O [Alprostadil] | 2.09
51 | Nc1nc2c(ncn2COC(CO)CO)c(=O)[nH]1 [Ganciclovir] | 1.39
52 | Oc1ccccc1O [Pyrocatechol] | 1.4
53 | Cc1ccc(Nc2nccc(N(C)c3ccc4c(C)n(C)nc4c3)n2)cc1S(N)(=O)=O | 1
54 | CN1CCN(c2c(F)cc3c(=O)c(C(=O)O)cn4c3c2OCN4C)CC1 [Marbofloxacin] | 1.29
55 | CC(=O)OCC(CCn1cnc2cnc(N)nc21)COC(C)=O [Famciclovir] | 1.37
56 | C[C@H]1O[C@H](O[C@H]2[C@H](O)[C@@H](O)[C@@H](O[C@@H]([C@H](O)[C@@H](O)C=O)[C@H](O)CO)O[C@@H]2CO)[C@H](O)[C@@H](O)[C@@H]1N[C@H]1C=C(CO)[C@@H](O)[C@H](O)[C@H]1O [Acarbose] | 1.07
57 | CC(C)(Oc1ccc(Cl)cc1)C(=O)O [Clofibric Acid] | 1.32
58 | Cc1cccc(Nc2ccncc2S(=O)(=O)NC(=O)NC(C)C)c1 [Torsemide] | 1.27
59 | CC1(C)O[C@@H]2C[C@H]3[C@@H]4CCC5=CC(=O)CC[C@]5(C)[C@@]4(F)[C@@H](O)C[C@]3(C)[C@]2(C(=O)CCl)O1 [Halcinonide] | 1.23
60 | CCCCCCCCCCC[C@@H](C[C@@H]1OC(=O)[C@H]1CCCCCC)OC(=O)[C@H](CC(C)C)NC=O [Orlistat] | 0.562
61 | C=CCNC1=C2C[C@@H](C)C[C@H](OC)[C@H](O)[C@@H](C)/C=C(\C)[C@H](OC(N)=O)[C@@H](OC)/C=C\C=C(/C)C(=O)NC(=CC1=O)C2=O | 0.00584
62 | CS(=O)(=O)c1ccc([C@@H](O)[C@@H](CO)NC(=O)C(Cl)Cl)cc1 [Thiamphenicol] | 1.11

From the supplement of paper PMC12355420
